Experimental data published in patent US10765754B2, “Compositions and methods related to inhibition of respiratory syncytial virus entry” (priority 2015, dated 2020).
Where two headings read alike, the source gives them in different places. At least one structure is not confirmed: it was looked up by name or label, or the drawing left a doubt. Starred links: 1 amine or outer side, 2 acyl side, 3 side chain; linkers in the order of their positions; H or OH if unused. Positions of bridges follow the written chain, without caps; N, C: chain ends. Non-standard residues stand in square brackets, D forms with d. Residues, ends and D or L forms follow the SMILES beside them. Chains are numbered I, II in the order given. No end group written: not given here. X2 = CC(COCCC(=O)[*:1])(COCCC(=O)[*:2])COCCC(=O)[*:3]; PEG6 = NCCOCCOCCOCCOCCOCCOCCC(=O)O

Assays:
[1] = target: T1, RSV-B/IZN45 (Human respiratory syncytial virus B, UniProt O36634); format: binding
T1 construct: N-trimer Mimics Synthesized; made in house; host or cells: chemical peptide synthesis
T1 sequence (O36634 163-207, added parts left off): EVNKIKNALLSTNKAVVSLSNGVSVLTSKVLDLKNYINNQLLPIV
From the text: (§1) IZN45 N-trimer mimic comprises the IZ domain, a highly soluble, designed coiled-coil that helps solubilize the N-trimer, along with the C-terminal (bottom) 45 residues of the RSV N-trimer. IZN45 encompasses the full ordered portion of the N-trimer except for three N-terminal residues (removed to maintain a continuous heptad repeat with the IZ domain). The interactions between 35-residue RSV C-peptides, T108 and T118 (Lambert et al., 1996, Proc. Natl. Acad. Sci. USA 93:2186-2191), and IZN45 was examined by surface plasmon resonance (SPR). SPR is a gold standard assay to measure the kinetics and affinity of biological interactions. […] The Biotinylated L-form of RSV target IZN45 was captured onto one lane of a NeutrAvidin coated SPR chip. A mutant version of IZN45 containing four mutated residues along the N-trimer groove designed to disrupt binding (IZN45 Full Mut, negative control) was captured onto a separate lane of the NeutrAvidin chip. T118, corresponding to the C-terminal portion of the RSV F ectodomain, which is known to interact with the RSV N-trimer groove, was flowed over the various surfaces. […] The surfaces were regenerated with a detergent (0.1% SDS) after each injection of analyte. Various concentrations of T118 were measured in duplicate or triplicate injections. D-peptide interactions with IZN45 and IZN45-Full Mut surfaces were also measured using this method.
(§2) Peptides from the ‘winning’ phage clones from each library were synthesized as D-peptides. If solubility of the peptides was limited, N- or C-terminal charged residue(s) (e.g., lysine) were attached as necessary as previously described for HIV peptides in Eckert et al., 1999, Cell 99:103-15, incorporated by reference in its entirety. Binding affinity and kinetics of the D-peptide inhibitors to the IZN45 and IZN45 mutants was characterized by SPR (Biacore 3000), using methods as described in Welch et al., 2007, Proc. Natl. Acad. Sci. USA 104:16828-33, incorporated by reference in its entirety.

[2] = target: T2, RSV-A/IZN45 (Human respiratory syncytial virus A, UniProt P03420); assay: SPR binding to RSV-A IZN45 N-trimer mimic
T2 construct: N-trimer Mimics Synthesized; made in house; host or cells: chemical peptide synthesis
T2 sequence (P03420 163-207, added parts left off): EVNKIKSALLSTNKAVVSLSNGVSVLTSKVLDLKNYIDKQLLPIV
From the text: as §1, §2

[3] = synthesized peptide, KD determined by SPR
[4] = subsequent trimer/compound made from peptide, SPR

Compound | Kd [1, 3] | Kd [2, 3] | Kd [1, 4] | Kd [2, 4]
CC[C@@H](C)[C@H]1NC(=O)[C@@H](CC(C)C)NC(=O)[C@@H](Cc2c[nH]c3ccccc23)NC(=O)[C@@H](CCC(=O)O)NC(=O)[C@@H](C)NC(=O)[C@@H](CCCNC(=N)N)NC(=O)[C@@H](CC(N)=O)NC(=O)[C@@H]([C@H](C)O)NC(=O)[C@H](NC(=O)[C@@H](C)NC(=O)CNC(=O)CCOCCOCCOCCOCCOCCOCCNC(=O)[C@@H](CCCCN)NC(C)=O)CSSC[C@H](C(=O)N[C@H](C)C(=O)N[C@H](C)C(N)=O)NC(=O)[C@@H](Cc2c[nH]c3ccccc23)NC(=O)[C@@H](CC(=O)O)NC1=O [Ac-K(PEG6)-RSVP21] (Ac-[dK][PEG6]G[dA][dC][dT][dN][dR][dA][dE][dW][dL][dI][dD][dW][dC][dA][dA]-NH2; disulfide 5-16) | 12 µM | 2.8 µM |  | 
CC(=O)N[C@H](CCCCN)C(=O)NCCOCCOCCOCCOCCOCCOCCC(=O)N[C@H](CC(=O)O)C(=O)N[C@H](CC(=O)O)C(=O)NCC(=O)N[C@H](Cc1c[nH]cn1)C(=O)N[C@H](C)C(=O)N[C@@H]1CSSC[C@H](C(=O)NCC(=O)N[C@H](CCCNC(=N)N)C(N)=O)NC(=O)[C@@H](Cc2c[nH]c3ccccc23)NC(=O)[C@@H](CC(=O)O)NC(=O)[C@@H](CC(C)C)NC(=O)[C@@H](CC(C)C)NC(=O)[C@@H](Cc2c[nH]c3ccccc23)NC(=O)[C@@H](CCC(=O)O)NC(=O)[C@H]2CCCN2C(=O)[C@@H](CCCNC(=N)N)NC(=O)[C@@H](CC(N)=O)NC(=O)[C@@H](C(C)C)NC1=O [Ac-K(PEG6)DDG-RSVP26] (Ac-[dK][PEG6][dD][dD]G[dH][dA][dC][dV][dN][dR][dP][dE][dW][dL][dL][dD][dW][dC]G[dR]-NH2; disulfide 8-19) | ~15.5 µM | ~9.4 µM |  | 
CC(=O)N[C@H](CCCCN)C(=O)NCCOCCOCCOCCOCCOCCOCCC(=O)N[C@H](CC(=O)O)C(=O)N[C@H](CC(=O)O)C(=O)NCC(=O)N[C@H](Cc1c[nH]cn1)C(=O)N[C@H](C)C(=O)N[C@@H]1CSSC[C@H](C(=O)N[C@H](CC(=O)O)C(=O)N[C@H](Cc2c[nH]cn2)C(N)=O)NC(=O)[C@@H](Cc2c[nH]c3ccccc23)NC(=O)[C@@H](CC(=O)O)NC(=O)[C@@H](CC(C)C)NC(=O)[C@@H](CC(C)C)NC(=O)[C@@H](Cc2c[nH]c3ccccc23)NC(=O)[C@@H](CCC(=O)O)NC(=O)[C@H]2CCCN2C(=O)[C@@H](CCCNC(=N)N)NC(=O)[C@@H](CC(N)=O)NC(=O)[C@@H](C(C)C)NC1=O [Ac-K(PEG6)DDG-RSVP28] (Ac-[dK][PEG6][dD][dD]G[dH][dA][dC][dV][dN][dR][dP][dE][dW][dL][dL][dD][dW][dC][dD][dH]-NH2; disulfide 8-19) | 2.9 µM | 5 µM |  | 
CC(=O)N[C@H](CCCCN)C(=O)NCCOCCOCCOCCOCCOCCOCCC(=O)N[C@H](CC(=O)O)C(=O)N[C@H](CC(=O)O)C(=O)NCC(=O)N[C@H](CO)C(=O)N[C@H](C)C(=O)N[C@@H]1CSSC[C@H](C(=O)NCC(=O)N[C@@H](C(N)=O)[C@H](C)O)NC(=O)[C@@H](Cc2c[nH]c3ccccc23)NC(=O)[C@@H](CC(=O)O)NC(=O)[C@@H](CC(C)C)NC(=O)[C@@H](CC(C)C)NC(=O)[C@@H](Cc2c[nH]c3ccccc23)NC(=O)[C@@H](CCC(=O)O)NC(=O)[C@H]2CCCN2C(=O)[C@@H](CCCNC(=N)N)NC(=O)[C@@H](CC(N)=O)NC(=O)[C@@H](C(C)C)NC1=O [Ac-K(PEG6)DDG-RSVP29] (Ac-[dK][PEG6][dD][dD]G[dS][dA][dC][dV][dN][dR][dP][dE][dW][dL][dL][dD][dW][dC]G[dT]-NH2; disulfide 8-19) | 4.2 µM | 3.6 µM |  | 
CSCC[C@@H](NC(=O)[C@@H](CO)NC(C)=O)C(=O)N[C@@H]1CSSC[C@H](C(=O)NCC(=O)N[C@@H](C(=O)NCC(=O)N[C@H](CC(=O)O)C(=O)N[C@H](CC(=O)O)C(=O)NCCOCCOCCOCCOCCOCCOCCC(=O)N[C@H](CCCCN)C(N)=O)[C@H](C)O)NC(=O)[C@@H](Cc2c[nH]c3ccccc23)NC(=O)[C@@H](CC(=O)O)NC(=O)[C@@H](CC(C)C)NC(=O)[C@@H](CC(C)C)NC(=O)[C@@H](Cc2c[nH]c3ccccc23)NC(=O)[C@@H](CCC(=O)O)NC(=O)[C@H]2CCCN2C(=O)[C@@H](CCCNC(=N)N)NC(=O)[C@@H](CC(N)=O)NC(=O)[C@@H](C(C)C)NC1=O [Ac-RSVP24-GDD(PEG6)K] (Ac-[dS][dM][dC][dV][dN][dR][dP][dE][dW][dL][dL][dD][dW][dC]G[dT]G[dD][dD][PEG6][dK]-NH2; disulfide 3-14) | 7.2 µM | 6.8 µM |  | 
I: Ac-[dS][dK][dV][dI][dL][dP][dE][dP][dF][dW][dW][dP]GG[PEG6][dK]-NH2 / II: Ac-[dS][dK][dV][dI][dL][dP][dE][dP][dF][dW][dW][dP]GG[PEG6][dK]-NH2 / III: Ac-[dS][dK][dV][dI][dL][dP][dE][dP][dF][dW][dW][dP]GG[PEG6][dK]-NH2 (linker I:16-II:16-III:16 via X2) [Ac-X12-47-GG(PEG6)K-trimer] |  |  | 0.088 µM | 0.076 µM
I: Ac-[dS][dL][dK][dY][dW][dW][dM][dE][dE][dL][dP][dL][dP][dK][dW][dW]GG[PEG6][dK]-NH2 / II: Ac-[dS][dL][dK][dY][dW][dW][dM][dE][dE][dL][dP][dL][dP][dK][dW][dW]GG[PEG6][dK]-NH2 / III: Ac-[dS][dL][dK][dY][dW][dW][dM][dE][dE][dL][dP][dL][dP][dK][dW][dW]GG[PEG6][dK]-NH2 (linker I:20-II:20-III:20 via X2) [Ac-X16-18-GG(PEG6)K-trimer] |  |  | 0.01 µM | 0.074 µM
I: [dK][dK]G[dR][dW][dF][dE][dL][dP][dE][dP][dE][dW][dW]G[PEG6][dK]G[dK]G-NH2 / II: [dK][dK]G[dR][dW][dF][dE][dL][dP][dE][dP][dE][dW][dW]G[PEG6] / III: [dK][dK]G[dR][dW][dF][dE][dL][dP][dE][dP][dE][dW][dW]G[PEG6] (amide I:17-II:C, I:19-III:C) [KKG-RSVP7-G(PEG6)-Tricasso] | 0.0036 µM | 0.0016 µM |  | 
